Test results as given in the supplement of paper PMC8728848.
Some of the results follow.

What was measured:
Assay in all cases: glycan array binding signal (z-score within array); higher = stronger binding
Settings in all cases: glycan notation: IUPAC condensed, linker removed
[1] = biological target: Fuc(a1-2)Gal6S(b1-3)GlcNAc6S
Procedure, shortened: (§1)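 The binding signal is a Z-score computed within each array and averaged over linkers. Arrays of the same protein sequence at different concentrations or buffers were also averaged together. Data originate from 3228 arrays in the Consortium for Functional Glycomics database, kept only where the protein sequence was available.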

Fuc(a1-2)Gal6S(b1-4)Glc = biological target: Fuc(a1-2)Gal6S(b1-4)Glc
Procedure, shortened: as §1

[2] = biological target: Fuc(a1-2)Gal6S(b1-4)Glc6S
Procedure, shortened: as §1

Fuc(a1-2)[Gal(a1-3)]Gal = biological target: Fuc(a1-2)[Gal(a1-3)]Gal
Procedure, shortened: as §1

[3] = biological target: Fuc(a1-2)[Gal(a1-3)]Gal(b1-3)GalNAc
Procedure, shortened: as §1

[4] = biological target: Fuc(a1-2)[Gal(a1-3)]Gal(b1-3)GalNAc(b1-3)Gal(a1-4)Gal(b1-4)Glc
Procedure, shortened: as §1

[5] = biological target: Fuc(a1-2)[Gal(a1-3)]Gal(b1-3)GlcNAc
Procedure, shortened: as §1

[6] = biological target: Fuc(a1-2)[Gal(a1-3)]Gal(b1-3)GlcNAc(b1-2)Man(a1-3)[Fuc(a1-2)[Gal(a1-3)]Gal(b1-3)GlcNAc(b1-2)Man(a1-6)]Man(b1-4)GlcNAc(b1-4)GlcNAc
Procedure, shortened: as §1

[7] = biological target: Fuc(a1-2)[Gal(a1-3)]Gal(b1-3)GlcNAc(b1-2)Man(a1-3)[Fuc(a1-2)[Gal(a1-3)]Gal(b1-3)GlcNAc(b1-2)Man(a1-6)]Man(b1-4)GlcNAc(b1-4)[Fuc(a1-6)]GlcNAc
Procedure, shortened: as §1

[8] = biological target: Fuc(a1-2)[Gal(a1-3)]Gal(b1-3)GlcNAc(b1-3)GalNAc
Procedure, shortened: as §1

[9] = biological target: Fuc(a1-2)[Gal(a1-3)]Gal(b1-3)GlcNAc(b1-6)GalNAc
Procedure, shortened: as §1

[10] = biological target: Fuc(a1-2)[Gal(a1-3)]Gal(b1-4)Glc
Procedure, shortened: as §1

[11] = biological target: Fuc(a1-2)[Gal(a1-3)]Gal(b1-4)GlcNAc
Procedure, shortened: as §1

[12] = biological target: Fuc(a1-2)[Gal(a1-3)]Gal(b1-4)GlcNAc(b1-2)Man
Procedure, shortened: as §1

[13] = biological target: Fuc(a1-2)[Gal(a1-3)]Gal(b1-4)GlcNAc(b1-2)Man(a1-3)[Fuc(a1-2)[Gal(a1-3)]Gal(b1-4)GlcNAc(b1-2)Man(a1-6)]Man(b1-4)GlcNAc(b1-4)GlcNAc
Procedure, shortened: as §1

[14] = biological target: Fuc(a1-2)[Gal(a1-3)]Gal(b1-4)GlcNAc(b1-2)Man(a1-3)[Fuc(a1-2)[Gal(a1-3)]Gal(b1-4)GlcNAc(b1-2)Man(a1-6)]Man(b1-4)GlcNAc(b1-4)[Fuc(a1-6)]GlcNAc
Procedure, shortened: as §1

[15] = biological target: Fuc(a1-2)[Gal(a1-3)]Gal(b1-4)GlcNAc(b1-3)GalNAc
Procedure, shortened: as §1

[16] = biological target: Fuc(a1-2)[Gal(a1-3)]Gal(b1-4)GlcNAc(b1-3)[Fuc(a1-2)[Gal(a1-3)]Gal(b1-4)GlcNAc(b1-6)]GalNAc
Procedure, shortened: as §1

[17] = biological target: Fuc(a1-2)[Gal(a1-3)]Gal(b1-4)GlcNAc(b1-6)GalNAc
Procedure, shortened: as §1

[18] = biological target: Fuc(a1-2)[Gal(a1-3)]Gal(b1-4)[Fuc(a1-3)]Glc
Procedure, shortened: as §1

[19] = biological target: Fuc(a1-2)[Gal(a1-3)]Gal(b1-4)[Fuc(a1-3)]GlcNAc
Procedure, shortened: as §1

[20] = biological target: Fuc(a1-2)[Gal(a1-3)]Gal(b1-4)[Fuc(a1-3)]GlcNAc(b1-3)GalNAc
Procedure, shortened: as §1

[21] = biological target: Fuc(a1-2)[Gal(a1-4)]Gal(b1-4)GlcNAc
Procedure, shortened: as §1

[22] = biological target: Fuc(a1-2)[GalNAc(a1-3)]Gal
Procedure, shortened: as §1

[23] = biological target: Fuc(a1-2)[GalNAc(a1-3)]Gal(b1-3)GalNAc(a1-3)[Fuc(a1-2)]Gal(b1-4)GlcNAc
Procedure, shortened: as §1

[24] = biological target: Fuc(a1-2)[GalNAc(a1-3)]Gal(b1-3)GalNAc(b1-3)Gal(a1-4)Gal(b1-4)Glc
Procedure, shortened: as §1

[25] = biological target: Fuc(a1-2)[GalNAc(a1-3)]Gal(b1-3)GlcNAc
Procedure, shortened: as §1

[26] = biological target: Fuc(a1-2)[GalNAc(a1-3)]Gal(b1-3)GlcNAc(b1-2)Man(a1-3)[Fuc(a1-2)[GalNAc(a1-3)]Gal(b1-3)GlcNAc(b1-2)Man(a1-6)]Man(b1-4)GlcNAc(b1-4)GlcNAc
Procedure, shortened: as §1

[27] = biological target: Fuc(a1-2)[GalNAc(a1-3)]Gal(b1-3)GlcNAc(b1-2)Man(a1-3)[Fuc(a1-2)[GalNAc(a1-3)]Gal(b1-3)GlcNAc(b1-2)Man(a1-6)]Man(b1-4)GlcNAc(b1-4)[Fuc(a1-6)]GlcNAc
Procedure, shortened: as §1

[28] = biological target: Fuc(a1-2)[GalNAc(a1-3)]Gal(b1-3)GlcNAc(b1-3)GalNAc
Procedure, shortened: as §1

[29] = biological target: Fuc(a1-2)[GalNAc(a1-3)]Gal(b1-3)GlcNAc(b1-6)GalNAc
Procedure, shortened: as §1

[30] = biological target: Fuc(a1-2)[GalNAc(a1-3)]Gal(b1-4)Glc
Procedure, shortened: as §1

[31] = biological target: Fuc(a1-2)[GalNAc(a1-3)]Gal(b1-4)GlcNAc
Procedure, shortened: as §1

[32] = biological target: Fuc(a1-2)[GalNAc(a1-3)]Gal(b1-4)GlcNAc(b1-2)Man
Procedure, shortened: as §1

[33] = biological target: Fuc(a1-2)[GalNAc(a1-3)]Gal(b1-4)GlcNAc(b1-2)Man(a1-3)[Fuc(a1-2)[GalNAc(a1-3)]Gal(b1-4)GlcNAc(b1-2)Man(a1-6)]Man(b1-4)GlcNAc(b1-4)GlcNAc
Procedure, shortened: as §1

[34] = biological target: Fuc(a1-2)[GalNAc(a1-3)]Gal(b1-4)GlcNAc(b1-2)Man(a1-3)[Fuc(a1-2)[GalNAc(a1-3)]Gal(b1-4)GlcNAc(b1-2)Man(a1-6)]Man(b1-4)GlcNAc(b1-4)[Fuc(a1-6)]GlcNAc
Procedure, shortened: as §1

[35] = biological target: Fuc(a1-2)[GalNAc(a1-3)]Gal(b1-4)GlcNAc(b1-3)Gal(b1-4)GlcNAc
Procedure, shortened: as §1

[36] = biological target: Fuc(a1-2)[GalNAc(a1-3)]Gal(b1-4)GlcNAc(b1-3)Gal(b1-4)GlcNAc(b1-3)Gal(b1-4)GlcNAc
Procedure, shortened: as §1

[37] = biological target: Fuc(a1-2)[GalNAc(a1-3)]Gal(b1-4)GlcNAc(b1-3)GalNAc
Procedure, shortened: as §1

[38] = biological target: Fuc(a1-2)[GalNAc(a1-3)]Gal(b1-4)GlcNAc(b1-3)[Fuc(a1-2)[GalNAc(a1-3)]Gal(b1-4)GlcNAc(b1-6)]GalNAc
Procedure, shortened: as §1

[39] = biological target: Fuc(a1-2)[GalNAc(a1-3)]Gal(b1-4)GlcNAc(b1-6)GalNAc
Procedure, shortened: as §1

[40] = biological target: Fuc(a1-2)[GalNAc(a1-3)]Gal(b1-4)[Fuc(a1-3)]GlcNAc
Procedure, shortened: as §1

[41] = biological target: Fuc(a1-2)[GalNAc(a1-3)]Gal(b1-4)[Fuc(a1-3)]GlcNAc(b1-3)GalNAc
Procedure, shortened: as §1

[42] = biological target: Fuc(a1-2)[GalNAc(a1-4)]Gal(b1-4)GlcNAc
Procedure, shortened: as §1

[43] = biological target: Fuc(a1-2)[GalNAc(b1-3)]Gal
Procedure, shortened: as §1

B1: AT1G15820(NC) (Arabidopsis thaliana) (protein)
chain: MAMAVSGAVLSGLGSSFLTGGKRGATALASGVGDAIAPFSFGSLLGTQLLLMGWVESKRWVDFFNPDSQSVEWATPWSKTAENFANYTGDQGYPGGRFFDPLGLAGKNRDGVYEPDFEKLERLKLAEIKHSRLAMVAMLIFYFEAGQGKTPLGALGL
[1]
  glycan array binding signal (z-score): -0.221
Fuc(a1-2)Gal6S(b1-4)Glc
  glycan array binding signal (z-score): -0.058
[2]
  glycan array binding signal (z-score): -0.137
Fuc(a1-2)[Gal(a1-3)]Gal
  glycan array binding signal (z-score): 0.074
[3]
  glycan array binding signal (z-score): 0.211
[4]
  glycan array binding signal (z-score): 0.096
[5]
  glycan array binding signal (z-score): -0.395
[6]
  glycan array binding signal (z-score): -0.192
[7]
  glycan array binding signal (z-score): 0.402
[8]
  glycan array binding signal (z-score): -0.396
[9]
  glycan array binding signal (z-score): -0.424
[10]
  glycan array binding signal (z-score): -0.243
[11]
  glycan array binding signal (z-score): -0.22
[12]
  glycan array binding signal (z-score): 0.285
[13]
  glycan array binding signal (z-score): -0.379
[14]
  glycan array binding signal (z-score): -0.225
[15]
  glycan array binding signal (z-score): -0.05
[16]
  glycan array binding signal (z-score): -1.18
[17]
  glycan array binding signal (z-score): -0.44
[18]
  glycan array binding signal (z-score): -0.025
[19]
  glycan array binding signal (z-score): -0.28
[20]
  glycan array binding signal (z-score): 0.018
[21]
  glycan array binding signal (z-score): 0.706
[22]
  glycan array binding signal (z-score): -0.341
[23]
  glycan array binding signal (z-score): -0.538
[24]
  glycan array binding signal (z-score): 0.293
[25]
  glycan array binding signal (z-score): -0.116
[26]
  glycan array binding signal (z-score): -0.173
[27]
  glycan array binding signal (z-score): -0.4
[28]
  glycan array binding signal (z-score): 1.17
[29]
  glycan array binding signal (z-score): -0.528
[30]
  glycan array binding signal (z-score): -0.375
[31]
  glycan array binding signal (z-score): -0.399
[32]
  glycan array binding signal (z-score): -0.275
[33]
  glycan array binding signal (z-score): -0.415
[34]
  glycan array binding signal (z-score): -0.316
[35]
  glycan array binding signal (z-score): -0.397
[36]
  glycan array binding signal (z-score): 0.384
[37]
  glycan array binding signal (z-score): -0.765
[38]
  glycan array binding signal (z-score): -0.627
[39]
  glycan array binding signal (z-score): -0.49
[40]
  glycan array binding signal (z-score): -0.293
[41]
  glycan array binding signal (z-score): 4.75
[42]
  glycan array binding signal (z-score): -0.403
[43]
  glycan array binding signal (z-score): -0.222
